Screen size: about 390,000 compounds; about 930 (0.24%) were called active. This list was built around the results that the source calls inconclusive (neither active nor inactive); the mix of calls is not that of the screen. The call rests on the fitted dose curve; in most records, active means well fitted activation curve with a large enough effect; inconclusive means small, poorly fitted or top-dose-only effect; inactive means no such curve, though single readings can be large or run the other way. A potency beside an inconclusive call is a rough fit, not a confirmed value.
Assay: qHTS for Suppressors of FUS Proteinopathy: Primary screen using FUS-linked yeast assay; further: nearly all actives have a fitted effect of over 55% in size
Conditions: S. cerevisiae FUS-expressing, OD600, 24 h; Potency: growth rescue; series mostly up to 76.6 µM
Outline: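 Galactose (2%) drives FUS expression in yeast precultured in raffinose; seeding density OD 0.005. Test compounds incubated 24hr at 30C and 99% humidity before absorbance at 600 nm was measured.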
Potency means the concentration at half of the fitted maximal effect; tags describe the fitted curve by direction and shape.

Row | SMILES | Potency
1 | Cc1ccc(C)c(Cn2c(=O)n(CC3CCC(C(=O)N4CCOCC4)CC3)c(=O)c3sccc32)c1 (configuration not stated) | inactive
2 | CN(C(=O)c1ccc(-c2nn(C)c(=O)c3ccccc23)cc1)c1ccccc1 | inactive
3 | COc1ccccc1C(NC(=O)C1CCN(CCOc2ccc3ccccc3c2)CC1)c1ccccn1 (configuration not stated) | inconclusive: 35.5 µM [activator, partial curve, poor fit]
4 | Fc1cccc(Cl)c1CSc1nnc(CNc2ccccc2)o1 | inactive
5 | Cc1ccc(C(=O)N/C(=C/c2ccco2)C(=O)NCCc2c[nH]c3ccccc23)cc1 | inconclusive: 8.91 µM [activator, partial curve]
6 | CN1/C(=C\C(=O)COC(=O)Cn2nnc(-c3ccccc3)n2)C(C)(C)c2ccccc21 | inconclusive: 20 µM [activator, partial curve, poor fit]
7 | COc1ccc(CN(Cc2ccco2)C(=O)COc2ccc(Cl)cc2C)cc1 | inconclusive: 28.2 µM [activator, partial curve, poor fit]
8 | Cc1ccccc1OCC(=O)N/N=C/c1sc(=O)n(Cc2cccc(C(=O)O)c2)c1Cl | inconclusive: 50.1 µM [activator, single point]
9 | CCCCCCSc1cccc(-c2nc3cc(C)ccn3c2NC2CCCCC2)c1 | inconclusive: 50.1 µM [activator, single point]
10 | Cc1ccc(C)c(N2CCN(C(=O)c3ccc(-c4nc(COc5ccccc5)c(C)o4)cc3)CC2)c1 | inactive
11 | Cc1ccc(NC(=O)c2c(NC(=O)C(F)(F)F)sc3c2CCCCC3)cc1 | inactive
12 | COc1ccccc1CC(=O)N1CCN(c2cccc(Cl)c2)CC1 | inactive
13 | O=C(CSc1nccn1Cc1ccccc1)Nc1ccc2c(c1)OCCO2 | inactive
14 | CCCC(C)C(=O)Nc1nc(C)c(-c2csc(Nc3cc(OC)ccc3OC)n2)s1 (configuration not stated) | inconclusive: 50.1 µM [activator, single point]
15 | COc1cccc(OC)c1C(=O)NC(=S)Nc1ccc(S(=O)(=O)Nc2nccs2)cc1 | inconclusive: 50.1 µM [activator, single point]
16 | Cc1ccccc1-c1nc(P(=O)(c2ccccc2)c2ccccc2)c(N2CCOCC2)o1 | inconclusive: 28.2 µM [activator, single point]
17 | Cc1ccc(S(=O)(=O)NC[C@H]2CN(S(=O)(=O)c3ccc(C)cc3)[C@@H](Cc3ccccc3)CO2)cc1 | inconclusive: 15.8 µM [activator, partial curve, poor fit]
18 | Cc1ccc(/C=C/C(=O)c2ccc(N3CCOCC3)cc2)s1 | inactive
19 | O=C(NN=C1CCCCC1)c1ccccc1-n1cccc1 | inactive
20 | O=C(NC1CCCC1)C(c1ccncc1)N(Cc1ccccc1)C(=O)c1ccc(-c2ccccc2)[nH]1 (configuration not stated) | inconclusive: 28.2 µM [activator, single point]
21 | CCOc1ccccc1NC(=O)N1CCC2(CC1)Oc1ccccc1C(=O)N2Cc1ccccc1F | inconclusive: 14.1 µM [activator, partial curve, poor fit]

Row | SMILES | Potency
22 | CC1=C(C(=O)Nc2ccccc2)C(c2ccc(O)cc2)n2nc(SCc3ccccc3)nc2N1 (configuration not stated) | inconclusive: 50.1 µM [activator, single point]
23 | Cc1ccc(NS(=O)(=O)c2ccc(-c3cc(C)no3)cc2)c(Br)c1 | inactive
24 | COC(=O)[C@@]1(Cc2ccc(F)cc2)[C@H]2c3cc(C(=O)N4CCCC4)n(CC4CC4)c3C[C@H]2CN1C(=O)c1ccccc1 | inconclusive: 12.6 µM [activator, partial curve, poor fit]
25 | CS(=O)(=O)c1ccc(C(=O)Nc2nc(-c3ccco3)c(-c3ccco3)s2)cc1 | inconclusive: 3.98 µM [activator, full curve]
26 | CCCCCN(C(=O)CCC(=O)OCc1cc(C)ccc1C)c1c(N)n(CCCC)c(=O)[nH]c1=O | inconclusive: 31.6 µM [activator, single point]
27 | COc1ccc2[nH]cc(CCN=C(NC(=O)c3ccccc3C)Nc3nc(C)cc(C)n3)c2c1 | inactive
28 | COc1cc2c(cc1OC)C(C1(O)CCCCC1)NCC2 (configuration not stated) | inactive
29 | CC(C)(C)OC(=O)N1CCC(N[C@@H](Cc2c[nH]c3ccccc23)C(=O)NCC(c2ccccc2)c2ccccc2)(C(=O)NC2CCCCC2)CC1 | active: 10 µM
30 | O=C(CSCc1ccc(F)cc1)Nc1ccc(N2CCOCC2)cc1N1CCOCC1 | inactive
31 | Cc1ccc(C2C(C(=O)c3cc4ccccc4o3)=C(O)C(=O)N2CCN2CCOCC2)cc1 (configuration not stated) | inactive
32 | CCCCCC(=O)N1C[C@H](n2cc(COC(=O)c3ccccc3)nn2)[C@@H](O)C[C@@H]1c1ccc(C)cc1 | inconclusive: 22.4 µM [activator, single point]
33 | Cc1cc2c(cc3c(SCc4ccccc4Cl)nnc(C)n32)o1 | inactive
34 | CC(C)c1ccc(NC(=O)N(CCc2nc3ccccc3[nH]2)C2CCCC2)cc1 | inconclusive: 31.6 µM [activator, single point]
35 | COc1cc(C(=O)Oc2c(OC)cc(C(=S)N3CCOCC3)cc2OC)cc(OC)c1OC | inconclusive: 17.8 µM [activator, partial curve, poor fit]
36 | CC(C)C[C@H](NC(=O)c1nc[nH]c1C(=O)NC1CCN(C(=O)OC(C)(C)C)CC1)C(=O)OC(C)(C)C | active: 14.1 µM
37 | S=c1[nH]cnc2scc(-c3ccc(Cl)cc3)c12 | inactive
38 | CCOC(=O)c1c(S(=O)(=O)N2CCC(C(=O)N3CCN(c4ccc(F)cc4)CC3)CC2)c(C)n(C)c1C | inactive
39 | O=C1N(Cc2ccccc2)c2ccccc2C1(O)c1c[nH]c2ccccc12 (configuration not stated) | inactive
40 | O=C1c2ccccc2S(=O)(=O)c2cc(C(=O)N3CCN(c4c(Cl)cncc4Cl)CC3)ccc21 | active: 20 µM
41 | CC1CC(C)CN(S(=O)(=O)c2ccc(C(=O)Nc3nnc(C4CC4)o3)cc2)C1 (configuration not stated) | inconclusive: 14.1 µM [activator, partial curve]
42 | CCOC(=O)[C@]12CCCC=C1N(Cc1cccc3ccccc13)C(=O)[C@H](CC(=O)NCc1cccs1)C2 | inconclusive: 39.8 µM [activator, single point]

Reference: PubChem BioAssay AID1347120 (National Center for Advancing Translational Sciences (NCATS), 2019)
